In patent US20250092146A1 (ABILITA BIO, published 2025):

Key:
[1] = biological target: T1, human CCR8 (hCCR8) (human, UniProt P51685 1-355); assay: flow cytometry on HuT-78 cells, VHH-Fc fusion
T1 construct: On transfected HEK293/HEK293T cells, or naturally expressed on HuT-78 cells; also called C-C chemokine receptor type 8

[2] = biological target: T1, human CCR8 (hCCR8); assay: flow cytometry on HuT-78 cells, VHH-Fc fusion; normalized to VHH-1
[3] = biological target: T1, human CCR8 (hCCR8); assay: flow cytometry on HEK293-hCCR8 cells, VHH-Fc
[4] = biological target: T1, human CCR8 (hCCR8); assay: flow cytometry on HEK293-hCCR8 cells, VHH-Fc; normalized to wild type VHH-2-Fc

T1 sequence (P51685 whole entry, the tested form may be a part): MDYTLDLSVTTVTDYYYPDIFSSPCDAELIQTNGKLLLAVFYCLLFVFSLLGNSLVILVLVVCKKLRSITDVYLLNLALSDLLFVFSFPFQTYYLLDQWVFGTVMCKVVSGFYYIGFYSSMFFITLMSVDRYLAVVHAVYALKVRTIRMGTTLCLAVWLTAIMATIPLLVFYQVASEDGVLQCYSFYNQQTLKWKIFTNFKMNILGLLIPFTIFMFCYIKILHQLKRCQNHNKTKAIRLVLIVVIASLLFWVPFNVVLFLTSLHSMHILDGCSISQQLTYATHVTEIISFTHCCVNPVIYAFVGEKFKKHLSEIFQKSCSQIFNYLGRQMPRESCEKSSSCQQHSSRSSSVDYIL

Binder | EC50 [1] [nM] | Normalized Bmax (%) [2] [%] | EC50 [3] [nM] | % Bmax [4] [%]
VHH-1.3-4-Fc (Fc fusion, Against VHH-1.3 (IMGT): R38T, R108I) EVQLVESGGGLVQPGGSLRLSCAASGSTSSIRTIGWYRQAPGKGRELVARFSSGGGTNYADSVKGRFTISGDNSKNTMYLQMNSLRAEDTAVYYCSARILLGTSRVDYWGQGTTVTVSS[human IgG1 Fc not given here] | 7.68 | 82.4 |  | 
VHH-1.3-5-Fc (Fc fusion, Against VHH-1.3 (IMGT): R55G) EVQLVESGGGLVQPGGSLRLSCAASGSTSSIRRIGWYRQAPGKGRELVAGFSSGGGTNYADSVKGRFTISGDNSKNTMYLQMNSLRAEDTAVYYCSARRLLGTSRVDYWGQGTTVTVSS[human IgG1 Fc not given here] | 4.42 | 90.1 |  | 
VHH-1.3-6-Fc (Fc fusion, Against VHH-1.3 (IMGT): R55H) EVQLVESGGGLVQPGGSLRLSCAASGSTSSIRRIGWYRQAPGKGRELVAHFSSGGGTNYADSVKGRFTISGDNSKNTMYLQMNSLRAEDTAVYYCSARRLLGTSRVDYWGQGTTVTVSS[human IgG1 Fc not given here] | 3.75 | 97 |  | 
VHH-1.3-8-Fc (Fc fusion, Against VHH-1.3 (IMGT): G63I, L110V) EVQLVESGGGLVQPGGSLRLSCAASGSTSSIRRIGWYRQAPGKGRELVARFSSGIGTNYADSVKGRFTISGDNSKNTMYLQMNSLRAEDTAVYYCSARRLVGTSRVDYWGQGTQVTVSS[human IgG1 Fc not given here] | 1.36 | 63.4 |  | 
VHH-1.3-10-Fc (Fc fusion, Against VHH-1.3 (IMGT): T65I, L110V) QVQLQESGGGLVQPGGSLRLSCAASGSTSSIRRIGWYRQAPGKGRELVARFSSGGGINYADSVKGRFTISGDNSKNTMYLQMNSLRAEDTAVYYCSARRLVGTSRVDYWGQGTQVTVSS[human IgG1 Fc not given here] | 1.3 | 125 |  | 
VHH-1.3-11-Fc (Fc fusion, Against VHH-1.3 (IMGT): G64T) QVQLQESGGGLVQPGGSLRLSCAASGSTSSIRRIGWYRQAPGKGRELVARFSSGGTINYADSVKGRFTISGDNSKNTMYLQMNSLRAEDTAVYYCSARRLLGTSRVDYWGQGTQVTVSS[human IgG1 Fc not given here] | 0.61 | 79.6 |  | 
VHH-1.3-12-Fc (Fc fusion, Against VHH-1.3 (IMGT): S28F, G64T, L110Y) EVQLVESGGGLVQPGGSLRLSCAASGFTSSIRRIGWYRQAPGKGRELVARFSSGGTTNYADSVKGRFTISGDNSKNTMYLQMNSLRAEDTAVYYCSARRLYGTSRVDYWGQGTQVTVSS[human IgG1 Fc not given here] | 1.24 | 79.6 |  | 
VHH-1.3-13-Fc (Fc fusion, Against VHH-1.3 (IMGT): A25V, R38G, S57I) EVQLVESGGGLVQPGGSLRLSCAVSGSTSSIRGIGWYRQAPGKGRELVARFISGGGTNYADSVKGRFTISGDNSKNTMYLQMNSLRAEDTAVYYCSARRLLGTSRVDYWGQGTQVTVSS[human IgG1 Fc not given here] | 0.38 | 91.1 |  | 
VHH-1.3-14-Fc (Fc fusion, Against VHH-1.3 (IMGT): G64S, L110V) EVQLVESGGGLVQPGGSLRLSCAASGSTSSIRRIGWYRQAPGKGRELVARFSSGGSINYADSVKGRFTISGDNSKNTMYLQMNSLRAEDTAVYYCSARRLVGTSRVDYWGQGTQVTVSS[human IgG1 Fc not given here] | 0.9 | 132 |  | 
VHH-1.3-15-Fc (Fc fusion, Against VHH-1.3 (IMGT): S58G) EVQLVESGGGLVQPGGSLRLSCAASGSTSSIRRIGWYRQAPGKGRELVARFSGGGGTNYADSVKGRFTISGDNSKNTMYLQMNSLRAEDTAVYYCSARRLLGTSRVDYWGQGTTVTVSS[human IgG1 Fc not given here] | 2.82 | 107 |  | 
VHH-2-Fc I36A (Fc fusion, rest as VHH-2-Fc) heavy: QVQLQESGGGLVQAGGSLRLTCAVSGSTSTANRFAWYRQAPGKQRELVAATSSRTSPNYADSVKGRFRFSRDNARSAVYLQMDNLRPEDTAVYFCQARMAMGSSQVVYWGLGTQVTVSS[human IgG1 Fc not given here] |  |  | 0.84 | 50
VHH-2-Fc M108A (Fc fusion, rest as VHH-2-Fc) QVQLQESGGGLVQAGGSLRLTCAVSGSTSTINRFAWYRQAPGKQRELVAATSSRTSPNYADSVKGRFRFSRDNARSAVYLQMDNLRPEDTAVYFCQARAAMGSSQVVYWGLGTQVTVSS[human IgG1 Fc not given here] |  |  | 1.62 | 63
VHH-2-Fc M110A (Fc fusion, rest as VHH-2-Fc) QVQLQESGGGLVQAGGSLRLTCAVSGSTSTINRFAWYRQAPGKQRELVAATSSRTSPNYADSVKGRFRFSRDNARSAVYLQMDNLRPEDTAVYFCQARMAAGSSQVVYWGLGTQVTVSS[human IgG1 Fc not given here] |  |  | 1.92 | 58
VHH-2-Fc N37A (Fc fusion, rest as VHH-2-Fc) heavy: QVQLQESGGGLVQAGGSLRLTCAVSGSTSTIARFAWYRQAPGKQRELVAATSSRTSPNYADSVKGRFRFSRDNARSAVYLQMDNLRPEDTAVYFCQARMAMGSSQVVYWGLGTQVTVSS[human IgG1 Fc not given here] |  |  | 1.92 | 42
VHH-2-Fc Q105A (Fc fusion, rest as VHH-2-Fc) QVQLQESGGGLVQAGGSLRLTCAVSGSTSTINRFAWYRQAPGKQRELVAATSSRTSPNYADSVKGRFRFSRDNARSAVYLQMDNLRPEDTAVYFCAARMAMGSSQVVYWGLGTQVTVSS[human IgG1 Fc not given here] |  |  | 1.9 | 73
VHH-2-Fc Q114A (Fc fusion, rest as VHH-2-Fc) QVQLQESGGGLVQAGGSLRLTCAVSGSTSTINRFAWYRQAPGKQRELVAATSSRTSPNYADSVKGRFRFSRDNARSAVYLQMDNLRPEDTAVYFCQARMAMGSSAVVYWGLGTQVTVSS[human IgG1 Fc not given here] |  |  | 0.96 | 68
VHH-2-Fc R38A (Fc fusion, rest as VHH-2-Fc) heavy: QVQLQESGGGLVQAGGSLRLTCAVSGSTSTINAFAWYRQAPGKQRELVAATSSRTSPNYADSVKGRFRFSRDNARSAVYLQMDNLRPEDTAVYFCQARMAMGSSQVVYWGLGTQVTVSS[human IgG1 Fc not given here] |  |  | 6.02 | 22
VHH-2-Fc R59A (Fc fusion, rest as VHH-2-Fc) heavy: QVQLQESGGGLVQAGGSLRLTCAVSGSTSTINRFAWYRQAPGKQRELVAATSSATSPNYADSVKGRFRFSRDNARSAVYLQMDNLRPEDTAVYFCQARMAMGSSQVVYWGLGTQVTVSS[human IgG1 Fc not given here] |  |  | 2.47 | 68
VHH-2-Fc S28A (Fc fusion, rest as VHH-2-Fc) QVQLQESGGGLVQAGGSLRLTCAVSGATSTINRFAWYRQAPGKQRELVAATSSRTSPNYADSVKGRFRFSRDNARSAVYLQMDNLRPEDTAVYFCQARMAMGSSQVVYWGLGTQVTVSS[human IgG1 Fc not given here] |  |  | 1.61 | 68
VHH-2-Fc S30A (Fc fusion, rest as VHH-2-Fc) heavy: QVQLQESGGGLVQAGGSLRLTCAVSGSTATINRFAWYRQAPGKQRELVAATSSRTSPNYADSVKGRFRFSRDNARSAVYLQMDNLRPEDTAVYFCQARMAMGSSQVVYWGLGTQVTVSS[human IgG1 Fc not given here] |  |  | 1.62 | 66
VHH-2-Fc S57A (Fc fusion, rest as VHH-2-Fc) heavy: QVQLQESGGGLVQAGGSLRLTCAVSGSTSTINRFAWYRQAPGKQRELVAATASRTSPNYADSVKGRFRFSRDNARSAVYLQMDNLRPEDTAVYFCQARMAMGSSQVVYWGLGTQVTVSS[human IgG1 Fc not given here] |  |  | 1.03 | 69
VHH-2-Fc S58A (Fc fusion, rest as VHH-2-Fc) heavy: QVQLQESGGGLVQAGGSLRLTCAVSGSTSTINRFAWYRQAPGKQRELVAATSARTSPNYADSVKGRFRFSRDNARSAVYLQMDNLRPEDTAVYFCQARMAMGSSQVVYWGLGTQVTVSS[human IgG1 Fc not given here] |  |  | 1.02 | 65
VHH-1.3-7-Fc (Fc fusion, Against VHH-1.3 (IMGT): A25V, R55H, N82K) EVQLVESGGGLVQPGGSLRLSCAVSGSTSSIRRIGWYRQAPGKGRELVAHFSSGGGTNYADSVKGRFTISGDKSKNTMYLQMNSLRAEDTAVYYCSARRLLGTSRVDYWGQGTTVTVSS[human IgG1 Fc not given here] | 0.56 | 112 |  | 
VHH-1.3-9-Fc (Fc fusion, Against VHH-1.3 (IMGT): S58G, G64S, T65I, L110V) EVQLVESGGGLVQPGGSLRLSCAASGSTSSIRRIGWYRQAPGKGRELVARFSGGGSINYADSVKGRFTISGDNSKNTMYLQMNSLRAEDTAVYYCSARRLVGTSRVDYWGQGTQVTVSS[human IgG1 Fc not given here] | 0.58 | 124 |  | 
VHH-1.3-16-Fc (Fc fusion, Against VHH-1.3 (IMGT): S35T, R37V, G64S, R108I) EVQLVESGGGLVQPGGSLRLSCAASGSTSTIVRIGWYRQAPGKGRELVARFSSGGSTNYADSVKGRFTISGDNSKNTMYLQMNSLRAEDTAVYYCSARILLGTSRVDYWGQGTTVTVSS[human IgG1 Fc not given here] | 3.1 | 79 |  | 
VHH-1.3-18-Fc (Fc fusion, Against VHH-1.3 (IMGT): A25V, R38G, S57I, N83K) EVQLVESGGGLVQPGGSLRLSCAVSGSTSSIRGIGWYRQAPGKGRELVARFISGGGTNYADSVKGRFTISGDKSKNTMYLQMNSLRAEDTAVYYCSARRLLGTSRVDYWGQGTTVTVSS[human IgG1 Fc not given here] | 0.31 | 113 |  | 
